# Data: patent US20030091584A1
# B1: L1-7E5 (Fab fragment) (Fab, V domains shown)
# VH: QVTLRESGPALVKPTQTLTLTCTFSGFSLSTAGMSVGWIRQPPGKALEWLADIWWDDKKDYNPSLKSRLTISKDTSKNQVVLKVTNMDPADTATYYCARDMITNFYFDVWGAGTTVTVSS
# VL: DIQMTQSPSTLSASVGDRVTITCSASSSVGYMHWYQQKPGKAPKLLIYDTFRLASGVPSRFSGSGSGTEFTLTISSLQPDDFATYYCFQGSGYPFTFGGGTKLEIK
# B2: L2-15B10 (Fab fragment) (Fab, V domains shown)
# VH: B1 VH
# VL: B1 VL
# Target: RSV F protein (immobilized on the BIAcore sensor chip) (respiratory syncytial virus)
# Test: BIAcore, immobilized F protein
# Sequence of RSV F protein (immobilized on the BIAcore sensor chip) (respiratory syncytial virus) (P03420 26-524): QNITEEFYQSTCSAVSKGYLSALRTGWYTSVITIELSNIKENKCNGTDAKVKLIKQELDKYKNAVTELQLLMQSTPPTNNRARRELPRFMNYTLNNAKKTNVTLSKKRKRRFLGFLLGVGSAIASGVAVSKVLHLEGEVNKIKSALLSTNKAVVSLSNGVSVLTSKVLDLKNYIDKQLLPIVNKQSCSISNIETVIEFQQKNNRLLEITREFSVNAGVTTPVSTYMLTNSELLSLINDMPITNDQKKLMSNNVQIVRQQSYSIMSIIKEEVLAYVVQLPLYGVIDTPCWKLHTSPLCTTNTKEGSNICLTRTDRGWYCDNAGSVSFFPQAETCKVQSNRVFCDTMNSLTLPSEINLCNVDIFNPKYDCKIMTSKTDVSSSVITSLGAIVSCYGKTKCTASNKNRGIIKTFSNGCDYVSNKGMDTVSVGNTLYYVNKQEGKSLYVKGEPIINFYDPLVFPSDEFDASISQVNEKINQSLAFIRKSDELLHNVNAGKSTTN
Binder,kon,koff
B1,"329000, 357000, 405000, 335000, 426000 M⁻¹ s⁻¹ [lines of one column]",–
B2,–,"0.000134 s⁻¹, 0.000416 s⁻¹, 0.00027 s⁻¹ [one cell]"

# Certain results were filed several times, with different values. Only these are listed. The source may hold further records. The records of an entry seem to repeat one measurement; a mean can stand among them.
